Common to all, as to test: co-IP; nuclear lysates (2 mg) of mESCs induced with Dox (D) or treated with IAA plus Dox (ID); ANTI-FLAG M2 magnetic beads overnight at 4 °C pull down the FLAG-tagged transgene; washes with 150 mM NaCl, 0.05% Triton X-100; blot with anti-Rad21
In assay [1] the target is T1, CLC: CTCF N terminus - CTCFL zinc fingers - CTCF C terminus chimeric protein (mouse) (UniProt Q61164+A2APF3).
T1 sequence: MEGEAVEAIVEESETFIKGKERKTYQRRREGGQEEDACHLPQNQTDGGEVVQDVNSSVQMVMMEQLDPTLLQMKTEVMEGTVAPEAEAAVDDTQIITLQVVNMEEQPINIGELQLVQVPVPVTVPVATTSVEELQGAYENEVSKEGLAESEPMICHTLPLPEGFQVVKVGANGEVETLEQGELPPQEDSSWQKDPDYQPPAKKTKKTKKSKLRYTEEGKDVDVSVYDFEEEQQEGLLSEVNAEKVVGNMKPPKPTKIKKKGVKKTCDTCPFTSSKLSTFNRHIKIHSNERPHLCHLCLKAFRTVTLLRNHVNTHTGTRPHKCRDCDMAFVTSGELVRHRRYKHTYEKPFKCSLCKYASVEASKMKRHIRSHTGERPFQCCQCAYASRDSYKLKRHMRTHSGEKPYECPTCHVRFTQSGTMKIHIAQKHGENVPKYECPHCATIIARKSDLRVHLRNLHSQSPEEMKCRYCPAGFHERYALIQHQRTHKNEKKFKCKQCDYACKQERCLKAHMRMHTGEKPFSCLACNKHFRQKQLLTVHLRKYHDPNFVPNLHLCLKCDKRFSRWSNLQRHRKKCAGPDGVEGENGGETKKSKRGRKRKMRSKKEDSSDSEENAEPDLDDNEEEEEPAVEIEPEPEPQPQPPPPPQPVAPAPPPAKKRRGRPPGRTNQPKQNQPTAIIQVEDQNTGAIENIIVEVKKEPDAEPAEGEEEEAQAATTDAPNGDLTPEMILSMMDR

The target in assay [2] is T2, transgenic CTCF (3x FLAG-CTCF-mRuby2), doxycycline-inducible, knocked in at the Tigre locus (mouse) (UniProt Q61164).
T2 sequence: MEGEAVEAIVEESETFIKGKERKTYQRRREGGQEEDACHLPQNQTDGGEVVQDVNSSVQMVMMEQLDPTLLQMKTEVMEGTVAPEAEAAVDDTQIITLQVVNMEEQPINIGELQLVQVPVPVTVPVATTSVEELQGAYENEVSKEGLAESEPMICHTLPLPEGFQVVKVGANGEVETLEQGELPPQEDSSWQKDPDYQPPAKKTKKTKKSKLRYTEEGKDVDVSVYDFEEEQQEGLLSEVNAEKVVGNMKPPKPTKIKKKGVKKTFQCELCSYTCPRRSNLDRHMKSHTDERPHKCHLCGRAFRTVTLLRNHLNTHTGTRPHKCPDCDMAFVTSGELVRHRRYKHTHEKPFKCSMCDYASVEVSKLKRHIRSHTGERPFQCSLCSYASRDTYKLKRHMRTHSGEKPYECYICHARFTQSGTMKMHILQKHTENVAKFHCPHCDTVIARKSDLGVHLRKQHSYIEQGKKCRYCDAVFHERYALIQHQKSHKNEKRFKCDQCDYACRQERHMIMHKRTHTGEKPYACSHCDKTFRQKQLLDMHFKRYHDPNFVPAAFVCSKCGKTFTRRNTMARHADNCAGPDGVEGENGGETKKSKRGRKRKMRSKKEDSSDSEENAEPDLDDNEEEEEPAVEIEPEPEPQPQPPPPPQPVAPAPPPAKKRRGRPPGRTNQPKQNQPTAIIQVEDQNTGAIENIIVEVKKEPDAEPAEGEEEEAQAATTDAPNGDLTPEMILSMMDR

In assay [3] the target is T3, transgenic CTCFL (3x FLAG-CTCFL-mRuby2), doxycycline-inducible, knocked in at the Tigre locus (mouse) (UniProt A2APF3).
T3 sequence: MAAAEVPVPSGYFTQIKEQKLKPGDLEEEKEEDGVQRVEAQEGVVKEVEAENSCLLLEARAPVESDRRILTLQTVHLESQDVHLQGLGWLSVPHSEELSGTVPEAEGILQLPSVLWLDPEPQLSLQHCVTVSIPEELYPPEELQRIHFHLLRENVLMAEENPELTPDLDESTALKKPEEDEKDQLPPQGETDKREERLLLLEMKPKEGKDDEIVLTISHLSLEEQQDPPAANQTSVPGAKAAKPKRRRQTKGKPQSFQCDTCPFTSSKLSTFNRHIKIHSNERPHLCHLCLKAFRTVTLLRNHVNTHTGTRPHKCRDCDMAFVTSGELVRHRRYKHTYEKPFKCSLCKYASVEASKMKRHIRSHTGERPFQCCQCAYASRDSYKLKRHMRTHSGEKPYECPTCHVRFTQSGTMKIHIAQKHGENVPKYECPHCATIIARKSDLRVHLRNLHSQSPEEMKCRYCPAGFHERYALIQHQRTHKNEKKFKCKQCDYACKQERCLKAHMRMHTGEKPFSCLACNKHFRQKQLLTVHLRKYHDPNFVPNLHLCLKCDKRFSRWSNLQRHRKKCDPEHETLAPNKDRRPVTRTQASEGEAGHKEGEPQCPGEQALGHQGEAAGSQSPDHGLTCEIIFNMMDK

No constants are given. Whether binding was seen depends on the method and setting. In cells and extracts the contact can be indirect. Some binding calls cover weakened binding; strength is not graded here. For part of these data: Where a sequence is shown, tags or fusion partners need not be part of it.

B1: RAD21, a component of the cohesin complex (protein, UniProt Q61550 1-635)
chain: MFYAHFVLSKRGPLAKIWLAAHWDKKLTKAHVFECNLESSVESIISPKVKMALRTSGHLLLGVVRIYHRKAKYLLADCNEAFIKIKMAFRPGVVDLPEENREAAYNAITLPEEFHDFDQPLPDLDDIDVAQQFSLNQSRVEEITMREEVGNISILQENDFGDFGMDDREIMREGSAFEDDDMLVSTSASNLLLEPEQSTSNLNEKMNHLEYEDQYKDDNFGEGNDGGILDDKLISNNDGGIFDDPPALSEAGVMLPEQPAHDDMDEDDNGSLGGPDSPDSVDPVEPMPTMTDQTTLVPNEEEAFALEPIDITVKETKAKRKRKLIVDSVKELDSKTIRAQLSDYSDIVTTLDLAPPTKKLMMWKETGGVEKLFFLPAQPLWNNRLLKLFTRCLTPLVPEDLRKRRKGGEADNLDEFLKEFENPEVPREEQQPQQQQPQPQRDVIDEPIIEEPSRLQDSVMEASRTTIEESAMPPPPPQGVKRKAGQIDPEPSIPPQQVEQMEIPPVELPPEEPPNICQLIPELELLPEKEKEKEKEKEEEEEEEDEDASGGDQDQEERRWNKRTQQMLHGLQRALAKTGAESISLLELCRNTNRKQAAAKFYSFLVLKKQQAIELTQEEPYSDIIATPGPRFHII
Take B1: the binding result is “binds” in assay [1], “binds” in assay [2] and “no binding” in assay [3].

The values are drawn from publication PMC7212617.
